{"source": "paper PMC12136788", "binders": {"B1": {"name": "chr18:25531195:25531196:-_ENSG00000170558_ENST00000399380|hu_hu|motif|central (ssRNA)", "RNA": "GGGAGUUCUACAGUCCGACGAUCUUUCUUUCCUUUCCUUUUUUUUUUUUUUUGGUACAAAUUAUGUAAAACAUUUGUGCGGAGAACUUUUCUCCCUCCCCAAACCAAAAAGAAAAUAAAAAAUAAAAAAAUUAAAAAAAUUAACAACAGAGGAUUGAGCAUCA"}, "B2": {"name": "55057286_55057406_3720_CDS_ENSMUSG00000052713_ENSMUST00000064763|mouse|control|control (ssRNA)", "RNA": "GGGAGUUCUACAGUCCGACGAUCAUAAAGUGACUGAGCCAGGGCAGGGUGUCUCUGGGUGAUGACUGACUGGUGCUGAGGCUGCAGGGGUGCAGAAGUAUGGUCUACUUUCUUGGACUCCAACUGUUCCGCCUUGUCUUUCUUCAACAGAGGAUUGAGCAUCA"}, "B3": {"name": "chrX:102931482:102931483:-_ENSG00000123562_ENST00000441076|hu_hu|motif|central (ssRNA)", "RNA": "GGGAGUUCUACAGUCCGACGAUCAAUUGCAUCUACAUUUUUCUUGGCAGGGAGUUGAAACAGCUGCUUCUGCCUGGUAACGGAGUCCCAGUCCUCAACAAGCCAUGGUUUUAAUUCUUCAGGAAUCUUCACUUUAACCUCCAUCAACAGAGGAUUGAGCAUCA"}, "B4": {"name": "chr11:87793471:87793472:-_ENSMUSG00000020483_ENSMUST00000020775|mus_hu|motif|central (ssRNA)", "RNA": "GGGAGUUCUACAGUCCGACGAUCUGGACUUGAAAAUAAAAGAAUAAGCUGGAUCCCCCACCCCCCCACAUUGUCAACCCGGCACGAGAGUUUUGAAGGCGACUCAUGAAAAUCAGCAGCUCAAACGGCAAUGACCACCCCACCCAACAGAGGAUUGAGCAUCA"}, "B5": {"name": "chr6:29525140:29525141:-_ENSMUSG00000012535_ENSMUST00000012679|mus_hu|motif|central (ssRNA)", "RNA": "GGGAGUUCUACAGUCCGACGAUCGUUAGUUUUGUACAAAUGUUCCCCCAGUCGGUACCAAAAGUUAAAUGAAAUUUCGGCGGCCUCAUAUUGAGGAUGGCCUGCACAGAUAAGCAGCAGCUCCAGAGUUCGAAGGUCCCCAAGCAACAGAGGAUUGAGCAUCA"}, "B6": {"name": "chr1:185276735:185276736:-_ENSG00000116679_ENST00000392007|hu_hu|FALSE|FALSE (ssRNA)", "RNA": "GGGAGUUCUACAGUCCGACGAUCGAAUAUAAGCAUCAACCUUAUUCAACAAACGGGAGUCUCCCAUACAACUUGCAAAAUUUCGGUAAGAGAUGCAGCUGGUAACAUCCAUUCUAGACAGUAAAUAAUCACCACAAACCUGCUCAACAGAGGAUUGAGCAUCA"}, "B7": {"name": "chr12:7074771:7074772:-_ENSG00000215021_ENST00000535923|hu_hu|FALSE|FALSE (ssRNA)", "RNA": "GGGAGUUCUACAGUCCGACGAUCCAGGGAACCGGUGUGGGGGACCAUCGCAUGAUACUGGGGCGGGGUAGGGCUGUGCUGGACCCCUGGCUGGCUCCUCAAAAACUGGAGAAGCAGAUCCACUUCCUCUGGGGGUGGAGUUCUCAACAGAGGAUUGAGCAUCA"}, "B8": {"name": "chr14:78183846:78183847:+_ENSG00000119705_ENST00000557342|hu_hu|hu_hu_hu_mus_False|28_58 (ssRNA)", "RNA": "GGGAGUUCUACAGUCCGACGAUCUCUCAGAAAUCUUUCUUCAUCAGAUGUUUGAGCUCCGUGCAAAGCCUUUGCUCUUCUAGUGUGAACGUGGAUCUAUGGGAGGGCUAUAAUAUGCAGAAAAGGUAAUUUUUUUUUUAAAGACAACAGAGGAUUGAGCAUCA"}, "B9": {"name": "chr13:94999761:94999762:-_ENSMUSG00000021687_ENSMUST00000022197|perfect_dup|FALSE|FALSE (ssRNA)", "RNA": "GGGAGUUCUACAGUCCGACGAUCUUCUACAGGAAUGUCUACAGAAAAAUCCUGAUAGAAACAAGGUCCGACAGGAAAAUUGCUAGGAAGAGGUGGCCAAUUAUUUUUUCUACCAUGUUGACUGAGGUUUUGCAUUUCUCGUUCCAACAGAGGAUUGAGCAUCA"}, "B10": {"name": "chr2:113333244:113333245:+_ENSG00000125630_ENST00000417433|hu_hu|motif|central (ssRNA)", "RNA": "GGGAGUUCUACAGUCCGACGAUCAACAUCAAGUUAAACAACAUCCAGUUUCACUUUGAUGUUCAUAGCUGCCAGUUCAGCGGCAAAAUACCGAAAAACAUAAGGCACAGAAACAGUAUCGAUAGUGUCACUGCGACUACACAGCAACAGAGGAUUGAGCAUCA"}, "B11": {"name": "chr16:47694578:47694579:+_ENSG00000102893_ENST00000566044|hu_mus|motif|central (ssRNA)", "RNA": "GGGAGUUCUACAGUCCGACGAUCCUCAGGAGCAUCUGCGGUACUGCUCUGCCGUUUGACUUUUGAAUGCUUAGGAAAUUCGGGUUCUUCAAAGCUCUUAAAUUCUGGAAGCUUUUCUGUGUCACUAAUUCGUAGAAAGUCAAGCAACAGAGGAUUGAGCAUCA"}, "B12": {"name": "chr9:95013113:95013114:-_ENSG00000196305_ENST00000443024|hu_hu|hu_hu_hu_mus_False|28_68 (ssRNA)", "RNA": "GGGAGUUCUACAGUCCGACGAUCCUCAGUCAGAAAGGGCGUGUAAGGGGCCAUCAGUCUGCACAGAGAAAGCAGAACACUGAACAGUGUCUCCAGAGCCAUGACACAAUCCUCCAUCCCACUCUCACCCUUUAACCUCCUCCUCAACAGAGGAUUGAGCAUCA"}, "B13": {"name": "chr7:141445308:141445309:+_ENSG00000106028_ENST00000265304|hu_hu|hu_hu_hu_mus_False|18_38 (ssRNA)", "RNA": "GGGAGUUCUACAGUCCGACGAUCUAUGAUUGUUGUUGCUUGCCGCCUCACAUUGUUUUUAUCCAUGUACUCGCCAUAGUCCACUUUCCCUUCCACAUAAAUUCGAGCCCCCUUUUUCACAUAUUGAUAUGCCACAUCUCUGAGCAACAGAGGAUUGAGCAUCA"}, "B14": {"name": "chr1:45244325:45244326:+_ENSG00000142937_ENST00000396651|hu_mus|FALSE|FALSE (ssRNA)", "RNA": "GGGAGUUCUACAGUCCGACGAUCACACCUUUAUUACACUACACAUGAGGCUCAUUUGCCUUUCCGGGCUUUGAUCUUCCGCAGAUAGAACUCCAGCUCCUUGCCUUCGAGCACAUAGCCGUCUGCUCUGCCACACUGGCCUGGCAACAGAGGAUUGAGCAUCA"}}, "note": "This is one part of the list.", "data": [{"molecular_target": "T1, UNK ZnF1-3 (human, UniProt Q9C0B0 31-174)", "T1 sequence": "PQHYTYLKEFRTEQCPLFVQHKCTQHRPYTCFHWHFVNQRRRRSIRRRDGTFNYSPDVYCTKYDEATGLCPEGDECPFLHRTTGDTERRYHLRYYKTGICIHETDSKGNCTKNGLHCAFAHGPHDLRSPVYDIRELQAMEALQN", "assay": "nsRBNS (natural sequence RNA bind-n-seq); RBNS binding buffer (assumed for nsRBNS): 25 mM Tris pH 7.5, 150 mM KCl, 3 mM MgCl2, 0.01% Triton X-100, 500 ug/ml BSA, 20 U/ml SUPERase-In, 4 C; UNK is unkempt and MSI1 is Musashi-1; names of the RNAs are library labels; protein concentration not given here; high values mean tight binding", "units": {"binding signal": "enrichment R"}, "values": [{"binder": "B1", "binding signal": 2.43}, {"binder": "B2", "binding signal": 0.915}, {"binder": "B3", "binding signal": 1}, {"binder": "B4", "binding signal": 2.46}, {"binder": "B5", "binding signal": 0.98}, {"binder": "B6", "binding signal": 2.24}, {"binder": "B7", "binding signal": 1.06}, {"binder": "B8", "binding signal": 3.18}, {"binder": "B9", "binding signal": 1.64}, {"binder": "B10", "binding signal": 0.83}, {"binder": "B11", "binding signal": 0.894}, {"binder": "B12", "binding signal": 1.46}, {"binder": "B13", "binding signal": 0.668}, {"binder": "B14", "binding signal": 0.902}]}]}
